# Data taken from PubChem BioAssay (NCATS).
# This list was built around the results that the source calls inconclusive (neither active nor inactive); the mix of calls is not that of the screen. A potency beside an inconclusive call is a rough fit, not a confirmed value. Active and inactive are the calls of the source. Calls come from the whole dose curve; as a rule, active = well fitted cell-killing curve with a large enough effect; inconclusive = small, poorly fitted or top-dose-only effect, or effect the other way; inactive = no such curve, though single readings can be large or run the other way.
# What was measured:
# [1] = Viability qHTS for spleen associated tyrosine kinase inhibitor (SYKi) naive MV4-11 cells (AID 1963823); conditions: MV4-11 AML viability, CellTiter-Glo luminescence, 72 h; series mostly up to 45 µM; note: nearly all actives have a fitted effect of over 40% in size
# Outline: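 SYK inhibitor-naive MV4-11 cells, 500 per well, exposed to compounds for 72 hr at 37 C, 5% CO2. Viability read as CellTiter-Glo luminescence after 10 min at room temperature.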
# [2] = Viability qHTS for spleen associated tyrosine kinase inhibitor (SYKi) drug resistant MV4-11 cells (AID 1963824); note: nearly all actives have a fitted effect of over 35% in size
# Outline: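 CellTiter-Glo luminescence, read 10 min after reagent addition, reports viability after a 72 hr compound exposure. Cells are an MV4-11 line made resistant to SYK inhibition, seeded at 500 per well onto compound-containing plates.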
# Potency is the fitted concentration of half-maximal effect; tags give direction and shape of the fitted curve.
Structure (SMILES),Potency [1],Potency [2]
CCCOc1ccc(S(=O)(=O)N2CCN(CCO)CC2)cc1-c1nc2c(CCC)cn(CC)c2c(=O)[nH]1,"inconclusive: 32.6 µM [cytotoxic, single point]","inconclusive: 18.4 µM [cytotoxic, single point]"
COc1ccc2nc(SCc3ncc(C)c(OC)c3C)[nH]c2c1,"inconclusive: 0.668 µM [rising, full curve, poor fit]",inactive
CCC(C)/C=C(C)/C=C/C(=O)C1CCC(O)C(C)(O)C1=O (stereo unspecified),"inconclusive: 16.4 µM [cytotoxic, partial curve]",active: 13 µM
C/C1=C\C[C@]2(C)C(=O)C(O)=C([C@H](C)CO)[C@H]2C/C=C(\C)[C@@H](O)CC/C(C)=C/CC1,"inconclusive: 12.8 µM [cytotoxic, partial curve]","inconclusive: 12.8 µM [cytotoxic, partial curve]"
OCC(O)CCO/N=C1/C(c2c(O)[nH]c3ccccc23)=Nc2ccccc21 (stereo unspecified),"inconclusive: 0.0259 µM [cytotoxic, full curve]",active: 0.0517 µM
FC(F)(F)Oc1ccc(-c2ccc3nnc(C(F)(F)F)n3c2)cc1,inactive,inactive
C[C@@H](O[C@H]1OCCN(Cc2nn(P(=O)(O)O)c(=O)[nH]2)[C@H]1c1ccc(F)cc1)c1cc(C(F)(F)F)cc(C(F)(F)F)c1,"inconclusive: 8.93 µM [cytotoxic, partial curve]","inconclusive: 14.2 µM [cytotoxic, single point]"
CC1CCC2C(C)(C)[C@@H](O)CC[C@]2(C)C12Cc1c(O)cc3c(c1O2)CN(C(CCC(=O)O)C(=O)O)C3=O (stereo partly specified),"inconclusive: 3.17 µM [cytotoxic, single point]","inconclusive: 2.52 µM [cytotoxic, single point]"
